Growth inhibition call data for 40 compounds are collected here from the antibiotic and cytotoxicity screens of Wong et al. (2023).

Some of the results follow.

For the assay, the system named is S. aureus RN4220. The experiment in a line: growth inhibition call (relative growth <= 0.2). The settings on record: 50 µM.
With `COc1ccc(CN(C)C[C@@H]2OCCCC[C@H](C)Oc3ccc(NC(=O)CCC(F)(F)F)cc3C(=O)N([C@H](C)CO)C[C@@H]2C)cc1`, the growth inhibition call was “inactive”.
As for `CN(C)CC(=O)N1[C@@H](CO)[C@@H](c2ccc(C3=CCCC3)cc2)C12CN(S(=O)(=O)Cc1ccccc1)C2`, the growth inhibition call is “inactive”.
The result for `NC(CSSCC(N)C(=O)O)C(=O)O` (stereo not given) reads “inactive”; that for `C[C@H](CO)N1C[C@H](C)[C@H](CN(C)Cc2ccccc2)Oc2cc(C#Cc3ccccn3)ccc2S1(=O)=O`, “inactive”.
Take `C[C@H](CO)N1C[C@H](C)[C@@H](CN(C)C(=O)Cc2ccncc2)Oc2cc(C3=CCCC3)ccc2S1(=O)=O`: the growth inhibition call is “inactive”.
For the compound `CN1CCN(C(=O)C[C@H]2CC[C@H]3[C@@H](COC[C@H](O)CN3S(=O)(=O)c3cccc(Cl)c3)O2)CC1`, the growth inhibition call was “inactive”.
The result for `C[C@@H]1CCCCO[C@H](CN(C)S(=O)(=O)c2cn(C)cn2)[C@H](C)CN([C@@H](C)CO)C(=O)c2cc(NC(=O)Nc3ccc(C(F)(F)F)cc3)ccc2O1` reads “inactive”; that for `COc1ccc(S(=O)(=O)N(C)C[C@H]2Oc3ccc(NS(C)(=O)=O)cc3C(=O)N([C@H](C)CO)C[C@H]2C)cc1`, “inactive”.
The result for `COc1ccc(S(=O)(=O)Nc2ccc3c(c2)CC(=O)N([C@H](C)CO)C[C@@H](C)[C@H](CN(C)Cc2ccncc2)O3)cc1` reads “inactive”; that for `COc1cccc(S(=O)(=O)N[C@H]2CC[C@@H](CC(=O)NC3CCC3)O[C@@H]2CO)c1`, “inactive”; that for `CO[C@H]1O[C@H](CO)[C@@H](OC(=O)Nc2ccccc2-c2ccccc2)[C@H](OC(=O)Nc2ccccc2)[C@@H]1OC(=O)Nc1ccccc1`, “inactive”.
The result for `O=C(N[C@H]1CC[C@H](CCNS(=O)(=O)c2ccc(F)cc2)O[C@@H]1CO)C1CC1` reads “inactive”; that for `Cc1noc(C)c1S(=O)(=O)Nc1ccc2c(c1)CC(=O)N([C@H](C)CO)C[C@H](C)[C@H](CN(C)S(=O)(=O)c1ccc(Cl)cc1)O2`, “inactive”.
As to `CC(C)c1c(O)ccc2c1CCC1C(C)(C=O)CCCC21C` (stereo not given), the growth inhibition call is “inactive”.
Take `CN1C(=O)c2cc(NC(=O)c3cnccn3)ccc2OC[C@H]2O[C@@H](CC(=O)N[C@@H]3CCN(Cc4ccccc4)C3)CC[C@H]21`: the growth inhibition call was “inactive”.
With `O=C(C[C@H]1C=C[C@@H](NS(=O)(=O)c2ccc(F)cc2)[C@@H](CO)O1)N1CCC(Cc2ccccc2)CC1`, the growth inhibition call is “inactive”.
`CC(=O)c1ccc2c(c1)N(CCCN(C)C)c1ccccc1S2.O=C(O)C=CC(=O)O`: the growth inhibition call is “inactive”.
The result for `CC(C)NC(=O)Nc1cccc2c1O[C@H](CN(C)Cc1ccc(-c3ccccc3)cc1)[C@@H](C)CN([C@H](C)CO)C2=O` reads “inactive”; that for `C[C@H]1CN([C@@H](C)CO)C(=O)Cc2cc(NS(=O)(=O)c3ccc(F)cc3)ccc2O[C@@H]1CN(C)S(=O)(=O)c1ccc(F)cc1`, “inactive”; that for `NCc1cc(Oc2cccc(C(=O)N3C[C@@H](O)[C@H](F)C3)c2)nc(C(F)(F)F)c1`, “inactive”.
Take `C[C@@H]1CCCCO[C@H](CN(C)C(=O)Nc2ccc(C(F)(F)F)cc2)[C@@H](C)CN([C@@H](C)CO)C(=O)c2cc(NC(=O)C3CCCCC3)ccc2O1`: the growth inhibition call was “inactive”.
As to `C[C@@H]1CCCCO[C@H](CN(C)S(=O)(=O)c2ccc(Cl)cc2)[C@H](C)CN([C@@H](C)CO)C(=O)c2cc(NC(=O)Nc3ccc(C(F)(F)F)cc3)ccc2O1`, the growth inhibition call is “inactive”.
`C[C@@H]1CN([C@@H](C)CO)C(=O)c2cc(NC(=O)Nc3ccc4c(c3)OCO4)ccc2O[C@@H]1CN(C)Cc1ccc(C(=O)Nc2ccccc2N)cc1`: the growth inhibition call was “inactive”.
The result for `C[C@H](CO)N1C[C@H](C)[C@@H](CN(C)C(=O)Cc2ccccn2)Oc2ncc(-c3ccc(F)cc3)cc2C1=O` reads “inactive”.
The result for `COc1ccc(NC(=O)Nc2cccc3c2O[C@@H](CN(C)Cc2ccc(-c4ccccc4)cc2)[C@@H](C)CN([C@@H](C)CO)C3=O)cc1` reads “inactive”.
As to `C[C@H]1CCCCO[C@H](CN(C)S(=O)(=O)c2ccc(Cl)cc2)[C@@H](C)CN([C@@H](C)CO)C(=O)c2cc(NC(=O)NC3CCCCC3)ccc2O1`, the growth inhibition call is “inactive”.
With `O=C(C[C@H]1C=C[C@@H](NC(=O)CN2CCOCC2)[C@H](CO)O1)NC1CCCCC1` the entry was “inactive”.
Turning to `C[C@@H]1CN([C@H](C)CO)C(=O)c2cccc(NC(=O)CCCCCC(=O)Nc3ccccc3N)c2O[C@H]1CN(C)C(=O)Nc1ccccc1`, the growth inhibition call was “inactive”.
With `Cc1noc(C)c1S(=O)(=O)N(C)C[C@H]1OCCCC[C@H](C)Oc2ccc(NS(=O)(=O)c3cn(C)cn3)cc2C(=O)N([C@@H](C)CO)C[C@@H]1C` the entry was “inactive”.
In the case of `C[C@H](CO)N1C[C@H](C)[C@H](CN(C)C)OCCCC[C@H](C)Oc2ccc(NC(=O)Nc3ccc(C(F)(F)F)cc3)cc2C1=O`, the growth inhibition call is “inactive”.
As for `CO[C@H]1CN(C)C(=O)c2cc(NC(=O)Nc3ccccc3F)ccc2OC[C@@H](C)N(CCC(F)(F)F)C[C@H]1C`, the growth inhibition call is “inactive”.
The result for `C[C@@H]1CCCCO[C@@H](CN(C)C(=O)CCC(F)(F)F)[C@H](C)CN([C@H](C)CO)C(=O)c2cc(NC(=O)c3ccccc3)ccc2O1` reads “inactive”; that for `COC(=O)CNc1nc(OC)nc(N(C)C)n1`, “inactive”; that for `CC(C)NC(=O)N(C)C[C@@H]1Oc2ccc(NC(=O)CCC(F)(F)F)cc2C(=O)N([C@@H](C)CO)C[C@@H]1C`, “inactive”.
`C[C@H]1CN([C@@H](C)CO)C(=O)c2cc(C3=CCCCC3)cnc2O[C@H]1CN(C)C(=O)CN1CCOCC1`: the growth inhibition call was “inactive”.
As to `O=C(NO)c1cccc(C(=O)N/N=C/[C@H](O)[C@H](O)[C@@H](O)[C@@H](O)CO)c1`, the growth inhibition call is “inactive”.
As to `COc1ccc(S(=O)(=O)Nc2ccc3c(c2)CC(=O)N([C@@H](C)CO)C[C@@H](C)[C@H](CN(C)Cc2ccc(Oc4ccccc4)cc2)O3)cc1`, the growth inhibition call was “inactive”.
As to `C[C@H](CO)N1C[C@H](C)[C@H](CN(C)Cc2ccncc2)OCCCC[C@H](C)Oc2ccc(NC(=O)Cc3ccccc3)cc2C1=O`, the growth inhibition call was “inactive”.
Take `C[C@H]1CN([C@@H](C)CO)C(=O)c2cc(NC(=O)C3CC3)ccc2O[C@H]1CN(C)Cc1ccc(Oc2ccccc2)cc1`: the growth inhibition call is “inactive”.
In the case of `COC(=O)[C@@H]1CCCC1=O`, the growth inhibition call is “inactive”.
